{
  "source": "patent US7345051B2",
  "about": "“Mucin synthesis inhibitors” (Genaera Corporation, priority 2000, dated 2008)",
  "system": "CF mice (CF knock-out mice and CF ΔF508 mice)",
  "assay": "CF mice on talniflumate containing chow: body weight and survival",
  "conditions": "approximate dose of 100 mg/kg per os, sacrificed at that time",
  "data": [
    {"smiles": "O=C1OC(OC(=O)c2cccnc2Nc2cccc(C(F)(F)F)c2)c2ccccc21", "note": "(stereo not shown) [Talniflumate, talniflumate]", "values": [
      {"measurement": "survival", "result": "at least 26 days"}
    ]}
  ]
}
